Data on 14 molecules can be found in PMC12136788.

Some of the results follow.

B1: chr14:52327222:52327364:+|CDS|ENSG00000125384|unk|FALSE|unique (ssRNA)
RNA: GGGAGUUCUACAGUCCGACGAUCAUUUUUGCAUAUAUGAAUGAAACCUCUUCCCGAAAGGAAAAAUGGGACCUCCAAGCUCUUAGGUUUUUAUCAAUUAAUUCAAUAAUUGACCCUUGGGUCUUUGCCAUCCUUAGGCCUCCUCAACAGAGGAUUGAGCAUCA
B2: chr6:132328510:132328611:-|CDS|ENSG00000079931|msi1|FALSE|unique (ssRNA)
RNA: GGGAGUUCUACAGUCCGACGAUCUUGUGGGAUGUUGUAGGGUGGUCUUAUUUAUUGUGUCCUCCCUCUCAUUUAUGUUCGUGUAGGUUGAGCCAGUGAUACAGAGAGGCCAUGAGAGUCUGGUGCACCACAUCCUGCUCUAUCCAACAGAGGAUUGAGCAUCA
B3: chr10:119167843:119167906:-|3pUTR|ENSG00000165672|msi1_unk|total|mutant (ssRNA)
RNA: GGGAGUUCUACAGUCCGACGAUCUGCAUGAUCCCUCAUCCCUGAAAUUGAGUUUAUGCCGUCAUUUUACUUAUUUUAUUCAUCCGCUAACUUUGUCUAUGUAUAUUUCCCGAUAUUGAUCCGUGUAAUCGAUUAUAAAGGAUACAACAGAGGAUUGAGCAUCA
B4: ENSG00000198589:be:win_8151|CDS|ENSG00000198589|bound_else_gene|NA|bound_elsewhere_windowed (ssRNA)
RNA: GGGAGUUCUACAGUCCGACGAUCAGACUUGUUGAGGACCUUGGAGGGUCCUGAAAACUGCCUGAAACCAAAACUCAUUCAGGCUUCAAGAGAGGGUCAUUGUGUCAUAUUCUAUGAAAACGGCCUCUUCUGUACAUUCAGUGUCAACAGAGGAUUGAGCAUCA
B5: ENSG00000136451:be:win_2601|3pUTR|ENSG00000136451|bound_else_gene|NA|bound_elsewhere_windowed (ssRNA)
RNA: GGGAGUUCUACAGUCCGACGAUCCACUAACUAGGUAGUGUAUGCCCCUUCAGAACAUGCAGAGUGUAUCUUUUUUUAAAUUUCUCCUUCCGUUUCUUAAGUAUUGCGCAGAUUUGUUCAACUUUGUAAAUAUGGACAUCACUUCAACAGAGGAUUGAGCAUCA
B6: chr9:125307754:125307855:+|CDS|ENSG00000165219|unk|FALSE|unique (ssRNA)
RNA: GGGAGUUCUACAGUCCGACGAUCGGCUCUUGACAAUUUAUUGGCAAACCUACCCCCGGCCAAGCCAGGAAAAAGUAGCAGUUUAGAAAUGACUCCCUACAAUACACCUCAGCUAUCUCCAGCAACCACUCCAGCAAAUAAAAACAACAGAGGAUUGAGCAUCA
B7: chr1:209614869:209615270:-|three_prime_utr|ENSG00000196878|control|control|control (ssRNA)
RNA: GGGAGUUCUACAGUCCGACGAUCUUCCAUCUCCAGGAGACUUUCAUGCAGCCUAAAGUACAGCCUGGACCACCCCUGGUGUGUAGCUAGUAAGAUUACCCUGAGCUGCAGCUGAGCCUGAGCCAAUGGGACAGUUACACUUGACAACAGAGGAUUGAGCAUCA
B8: ENSG00000090857:stop:overlap|stop_codon|ENSG00000090857|stop_codon|NA|stop_codon (ssRNA)
RNA: GGGAGUUCUACAGUCCGACGAUCGGUGGAUGGAGAAACAUGGAUUUGAGAGGCCAAAGUACUUUGUUCCCCCCGACAAGGGCUAGAAUGUGUUCACAGAAGAAAAAGAACCACGUGGACUACACUAAACUCUACAGGGCCUUGCAACAGAGGAUUGAGCAUCA
B9: chr5:149977868:149977977:+|CDS|ENSG00000155850|unk|total|mutant (ssRNA)
RNA: GGGAGUUCUACAGUCCGACGAUCUAUUAAAAAGCUGCAGAAGAAUUGCCAGUGCAGUCCAGCCAAAGCCAAAAAUAUGAUUUCCGGUUUCCUUCCUGUUUUGCAGUGGCUCCCAAAAUACGACCUAAAGAAAAACAUUUCCGGCAACAGAGGAUUGAGCAUCA
B10: chr6:7881277:7881391:+|3pUTR|ENSG00000153162|unk|total|mutant (ssRNA)
RNA: GGGAGUUCUACAGUCCGACGAUCGCUGUUUAUGAACGGAAAUCAUGAUUUCCCUUGCCGAAAGUGAGGCUCAGAUUAAAUUUCCGAAUAUUUUCUAAAUGUCUUUUUCACAAUCAUGUACUGGGAAGGCAAUUUCAUACUAAACAACAGAGGAUUGAGCAUCA
B11: chr19:57593639:57593745:+|3pUTR|ENSG00000171649|unk|FALSE|unique (ssRNA)
RNA: GGGAGUUCUACAGUCCGACGAUCUGAACCUUCUUAUUUCUCUACAUUCUUGCCAUACUUGGUAUGGUUAGUCUUUUUAAUUUUAGUUGUUUUAAUAGCUGUAUAAUAGCAUCUGUCUGUGAUUUUAUUGCAUUUUUCUGGUAUCAACAGAGGAUUGAGCAUCA
B12: chr3:170465896:170466000:-|3pUTR|ENSG00000013293|unk|total|mutant (ssRNA)
RNA: GGGAGUUCUACAGUCCGACGAUCACUCCGGCCGUUGCAUUCCAUGAGAUCACAUUUCACUUCUGAACCUUAUUCCUUGGGGCCCGCUCACUUUCAGAGGUGUAUUUUUUUUUCCUGUUAUUUCCCAGAGCCGUUUCACUGAAGCAACAGAGGAUUGAGCAUCA
B13: chr12:132079871:132079972:+|3pUTR|ENSG00000183495|msi1|FALSE|bound_elsewhere (ssRNA)
RNA: GGGAGUUCUACAGUCCGACGAUCAGAUGCUACCGUUGACCUGAGUUAAAUUCAUUUAGUCGUGUACGUAAAAACUCUCCUUUUAGUGUGUUAUUUUCUUGGCCUUCCCUUUUAAAGGUUAAAGUUUCUAACCUAAGAAUUAAGCAACAGAGGAUUGAGCAUCA
B14: chr18:5392435:5392536:-|3pUTR|ENSG00000082397|msi1|total|mutant (ssRNA)
RNA: GGGAGUUCUACAGUCCGACGAUCAAGCCUUAAACUGUACAGAAUUUCCACUGUAAUUAAAACUAUUCCGUGUCCGUUAUAAACCGCCUUCAAAAAGAGAGAUUCUCCAUUACACGAUCACCUGCAUCACAGCCCAUGGUGAAUCAACAGAGGAUUGAGCAUCA

In the assay the target is MSI1 full-length (mouse, UniProt Q61474 1-362). The experiment in a line: nsRBNS (natural sequence RNA bind-n-seq); RBNS binding buffer (assumed for nsRBNS): 25 mM Tris pH 7.5, 150 mM KCl, 3 mM MgCl2, 0.01% Triton X-100, 500 ug/ml BSA, 20 U/ml SUPERase-In, 4 C; UNK is unkempt and MSI1 is Musashi-1; names of the RNAs are library labels; protein concentration not given here; high values mean tight binding.
UniProt Q61474, sequence (Q61474 whole entry): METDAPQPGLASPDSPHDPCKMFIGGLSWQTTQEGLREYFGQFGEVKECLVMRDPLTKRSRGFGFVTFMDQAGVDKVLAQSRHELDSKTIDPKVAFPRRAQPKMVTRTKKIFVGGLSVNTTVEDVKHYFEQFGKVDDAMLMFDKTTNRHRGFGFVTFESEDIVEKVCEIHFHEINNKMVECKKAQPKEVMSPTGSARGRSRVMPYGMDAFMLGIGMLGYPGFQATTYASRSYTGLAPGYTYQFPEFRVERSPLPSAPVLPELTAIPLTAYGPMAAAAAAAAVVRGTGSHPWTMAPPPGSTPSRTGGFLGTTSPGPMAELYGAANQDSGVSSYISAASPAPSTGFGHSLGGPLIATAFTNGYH
Molecule B1 came in with a binding signal of 0.397 enrichment R.

In turn, B2 gave a binding signal of 0.912 enrichment R. The same measure for B3: 2.84 enrichment R. Consider B4, for which the binding signal was found to be 0.254 enrichment R. The molecule B5 returned a binding signal of 5.52 enrichment R. In turn, B6 gave a binding signal of 1.22 enrichment R. In turn, B7 returned a binding signal of 0.551 enrichment R. With B8 the figure was 0.544 enrichment R. The same measure for B9: 0.245 enrichment R; for B10: 0.37 enrichment R. The same measure for B11: 19.1 enrichment R.

B12 gave a binding signal of 0.51 enrichment R. Regarding B13, the binding signal amounted to 4.94 enrichment R. In the case of B14, the binding signal was 0.785 enrichment R.
